Measurements as given in a compilation of properties of binary mixtures (doi:10.1021/je2007204).
Some of these densities may be calculated back from excess volumes.

Assay: xn = mol fraction of the nth substance listed

NCCO + CCCC[n+]1ccn(C)c1.F[B-](F)(F)F
101 kPa, x1 = 1
Settings | mass density [kg/m3]
298.15 K | 1013
303.15 K | 1009.7
313.15 K | 1002.5
333.15 K | 986.8
343.15 K | 978.6
353.15 K | 970.4

O + CCCC[n+]1ccn(C)c1.F[B-](F)(F)F
101 kPa, x1 = 1
Settings | mass density [kg/m3]
333.15 K | 983.2
343.15 K | 977.8
353.15 K | 971.8

NCCO + CCCCn1cc[n+](C)c1.F[B-](F)(F)F
mass density [kg/m3], 100 kPa
Settings | x2 = 0 | x2 = 0.0999 | x2 = 0.2001 | x2 = 0.2994 | x2 = 0.4004 | x2 = 0.4999 | x2 = 0.5994 | x2 = 0.7005 | x2 = 0.7992 | x2 = 0.9002
293.15 K | – | – | 1096.4 | 1122.2 | 1141.9 | – | 1169 | – | 1188.1 | 1196.5
298.15 K | 1013 | 1060.8 | 1092.4 | – | – | 1152.6 | – | – | 1184.1 | 1192.9
303.15 K | 1009.7 | – | 1088.5 | 1114.5 | 1134.3 | 1148.7 | – | 1171.5 | 1180.2 | 1189.2
313.15 K | 1002.5 | – | – | 1106.7 | 1126.6 | 1141 | 1153.4 | 1163.9 | 1172.7 | 1182
323.15 K | 994.8 | – | 1072.8 | 1098.9 | 1119.1 | – | – | 1156.3 | 1165.2 | 1174.9
333.15 K | 986.8 | – | 1064.9 | 1091.2 | 1111.6 | 1126.2 | – | 1148.8 | 1158 | –
343.15 K | 978.6 | – | 1057 | 1083.6 | 1104 | 1118.8 | 1131 | 1141.4 | 1150.5 | 1160.8
353.15 K | 970.4 | 1017.2 | 1049.1 | 1075.9 | 1096.7 | 1111.5 | 1123.6 | 1134.2 | – | –

O + CCCCn1cc[n+](C)c1.F[B-](F)(F)F
100 kPa, x2 = 0
Settings | mass density [kg/m3]
333.15 K | 983.2
343.15 K | 977.8

CCCC[n+]1ccn(C)c1.F[B-](F)(F)F + NCCO
mass density [kg/m3], 101 kPa
Settings | x2 = 0 | x2 = 0.0998 | x2 = 0.2008 | x2 = 0.2995 | x2 = 0.4006 | x2 = 0.5001 | x2 = 0.5996 | x2 = 0.7006 | x2 = 0.7999 | x2 = 0.9001
293.15 K | 1204.2 | 1196.5 | 1188.1 | – | 1169 | – | 1141.9 | 1122.3 | 1096.4 | –
298.15 K | 1200.6 | 1192.9 | 1184.1 | 1175.5 | 1165 | 1152.6 | 1138.1 | 1118.4 | – | 1060.8
303.15 K | 1197 | – | 1180.2 | 1171.5 | 1160.9 | 1148.7 | – | 1114.5 | 1088.5 | –
313.15 K | 1189.9 | – | 1172.7 | 1163.9 | 1153.4 | 1141 | 1126.6 | 1106.7 | 1080.6 | –
323.15 K | 1182.8 | 1174.9 | 1165.3 | 1156.3 | – | 1133.5 | 1119.1 | 1098.9 | 1072.8 | –
333.15 K | 1175.8 | 1167.9 | 1158 | 1148.8 | 1138.4 | 1126.2 | 1111.6 | 1091.2 | 1064.9 | –
343.15 K | 1168.9 | 1160.9 | 1150.5 | 1141.4 | 1131 | 1118.8 | 1104 | 1083.6 | 1057 | 1025.2
353.15 K | 1162 | – | 1143.2 | – | – | 1111.5 | – | 1075.9 | – | –

CCCCn1cc[n+](C)c1.F[B-](F)(F)F + NCCO
100 kPa, x1 = 1
Settings | mass density [kg/m3]
298.15 K | 1200.6
303.15 K | 1197
313.15 K | 1189.9
323.15 K | 1182.8
333.15 K | 1175.8
343.15 K | 1168.9
353.15 K | 1162

CCCC[n+]1ccn(C)c1.F[B-](F)(F)F + O
101 kPa
Settings | mass density [kg/m3]
293.15 K, x2 = 0.1012 | 1201.3
293.15 K, x2 = 0.8 | 1141
298.15 K, x2 = 0.9 | 1100.4
313.15 K, x2 = 0 | 1189.9
313.15 K, x2 = 0.5984 | 1158.5
313.15 K, x2 = 0.705 | 1145.1
323.15 K, x2 = 0.1012 | 1179.9
323.15 K, x2 = 0.4037 | 1166.2
323.15 K, x2 = 0.5984 | 1151.5
323.15 K, x2 = 0.705 | 1137.9
333.15 K, x2 = 0 | 1175.8
333.15 K, x2 = 0.3003 | 1164.6
333.15 K, x2 = 0.705 | 1130.8
343.15 K, x2 = 0 | 1168.9
343.15 K, x2 = 0.3003 | 1157.6
343.15 K, x2 = 0.4998 | 1145.8
343.15 K, x2 = 0.8 | 1105.1
343.15 K, x2 = 0.9 | 1068.7
353.15 K, x2 = 0 | 1162
353.15 K, x2 = 0.1012 | 1159
353.15 K, x2 = 0.1986 | 1155.3
353.15 K, x2 = 0.4037 | 1145
353.15 K, x2 = 0.4998 | 1138.7
353.15 K, x2 = 0.5984 | 1130.2
353.15 K, x2 = 0.8 | 1097.9
353.15 K, x2 = 0.9 | 1061.4

CCCCn1cc[n+](C)c1.F[B-](F)(F)F + O
100 kPa
Settings | mass density [kg/m3]
293.15 K, x1 = 0.2 | 1140.9
293.15 K, x1 = 0.295 | 1159.6
293.15 K, x1 = 0.8988 | 1201.3
303.15 K, x1 = 0.2 | 1135.4
303.15 K, x1 = 0.4016 | 1167.4
303.15 K, x1 = 0.6997 | 1187.9
303.15 K, x1 = 0.8988 | 1195.9
303.15 K, x1 = 1 | 1198.8
313.15 K, x1 = 0.1 | 1090.6
313.15 K, x1 = 0.295 | 1145.1
313.15 K, x1 = 0.4016 | 1158.5
313.15 K, x1 = 0.8988 | 1187
313.15 K, x1 = 1 | 1189.9
323.15 K, x1 = 0.4016 | 1151.5
323.15 K, x1 = 0.5963 | 1166.2
323.15 K, x1 = 0.8988 | 1179.9
323.15 K, x1 = 1 | 1182.8
333.15 K, x1 = 0.295 | 1130.8
333.15 K, x1 = 0.6997 | 1164.6
343.15 K, x1 = 0.1 | 1068.7
343.15 K, x1 = 0.2 | 1105.1
343.15 K, x1 = 0.5002 | 1145.8
343.15 K, x1 = 0.6997 | 1157.6
343.15 K, x1 = 0.8014 | 1162.3
343.15 K, x1 = 1 | 1168.9
353.15 K, x1 = 0.1 | 1061.4
353.15 K, x1 = 0.295 | 1116.8
353.15 K, x1 = 0.4016 | 1130.2
353.15 K, x1 = 0.5002 | 1138.7
353.15 K, x1 = 0.5963 | 1145
353.15 K, x1 = 0.6997 | 1150.5
353.15 K, x1 = 0.8014 | 1155.3
353.15 K, x1 = 0.8988 | 1159
353.15 K, x1 = 1 | 1162
